# Results: the antibiotic and cytotoxicity screens of Wong et al. (2023)
# The list shows a part of the results.
# Experiments:
# [1] = system: HSkMC (human skeletal muscle cells); assay: cytotoxicity call (relative viability < 0.9); conditions: 10 µM
# [2] = system: S. aureus RN4220; assay: growth inhibition call (relative growth <= 0.2); conditions: 50 µM
Compound,cytotoxicity call [1],growth inhibition call [2]
O=C(Nc1cccc2cccnc12)[C@@H]1[C@H](c2ccc(-c3ccccc3)cc2)CC(=O)N1C(=O)OCc1ccccc1,inactive,inactive
C[C@H]1CCCCO[C@H](CN(C)Cc2ccc(C(F)(F)F)cc2)[C@@H](C)CN([C@@H](C)CO)C(=O)c2cc(NS(=O)(=O)c3ccccc3)ccc2O1,inactive,inactive
C[C@@H]1CN([C@@H](C)CO)C(=O)c2cc(NS(C)(=O)=O)ccc2O[C@@H]1CN(C)Cc1ccc(C(=O)O)cc1,inactive,inactive
